From PubChem BioAssay AID1745853 (National Center for Advancing Translational Sciences (NCATS), 2022)
The list shows a part of the results. Shown are side measurements of this screen, not its main read-out; they come without a call.

What was measured:
Experiment in all cases: Primary Screen for Target Class Profiling of Small Molecule Inhibitors of Methyltransferases
[1] = target: Glycine N-methyltransferase (Homo sapiens) (UniProt Q14749); conditions: purified enzyme, MTase-Glo SAH luminescence; measured here: GNMT inhibition; at 40 µM; stronger effect = lower value
Procedure, shortened: (§1)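 Each enzyme was reacted with SAM and its substrate, with compounds tested once at 40 uM; SAH formed was read by MTase-Glo luminescence.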

[2] = target: Guanidinoacetate N-methyltransferase (Homo sapiens) (UniProt Q14353); conditions: purified enzyme, MTase-Glo SAH luminescence; measured here: GAMT inhibition; at 40 µM; stronger effect = lower value
Procedure, shortened: as §1

[3] = target: Histamine N-methyltransferase (Homo sapiens) (UniProt P50135); conditions: purified enzyme, MTase-Glo SAH luminescence; measured here: HNMT inhibition; at 40 µM; stronger effect = lower value
Procedure, shortened: as §1

[4] = target: Nicotinamide N-methyltransferase (Homo sapiens) (UniProt P40261); conditions: purified enzyme, MTase-Glo SAH luminescence; measured here: NNMT inhibition; at 40 µM; stronger effect = lower value
Procedure, shortened: as §1

[5] = target: Phenylethanolamine N-methyltransferase (Homo sapiens) (UniProt P11086); conditions: purified enzyme, MTase-Glo SAH luminescence; measured here: PNMT inhibition; at 40 µM; stronger effect = lower value
Procedure, shortened: as §1
% is set by controls: 0 for no effect and ±100 for the full control effect.

Row | Compound | activity change, negative = inhibition [1] [%] | activity change, negative = inhibition [2] [%] | activity change, negative = inhibition [3] [%] | activity change, negative = inhibition [4] [%] | activity change, negative = inhibition [5] [%]
1 | Cc1ccc(N2C(=O)CSc3c(c4ccccc4n3C)C2C(=O)NCCC(C)C)cc1C (stereo not given) | 0.111 | 0.814 | -3.6 | -6.68 | -3.7
2 | CCC(C)NC(=O)c1ccc2c(=O)n(CCC(C)C)c3nn(C)c(=O)n3c2c1 (stereo not given) | -6.11 | 0 | 5.27 | -6 | -8.42
3 | CC1(C(=O)NC2CCCC2)Cn2c(nc3ccccc32)C(=O)N1CCc1ccccc1 (stereo not given) | -1.3 | 0 | -0.59 | -8.78 | -4.29
4 | Cc1ccccc1C(=O)N[C@H]1[C@H](O)[C@H](O)C[C@@H]1c1ccc(N2CCOCC2)nc1 | -6.26 | -9.39 | -3.53 | -7.44 | -0.891
5 | C=C[C@]1(C)C[C@H](O)[C@@H]2[C@H](OC(=O)[C@@H]2C)C1/C(C)=C/O[C@@H]1O[C@H](CO)[C@@H](O)[C@H](O)[C@H]1O (stereo not given in full) | -1.29 | -3.73 | 4.14 | -12.5 | -4.84
6 | NS(=O)(=O)c1ccc(C(=O)NC(Cc2ccncc2)C2CC(O)C2)cc1 (stereo not given) | -0.276 | -2.71 | 2.24 | -0.037 | -1.34
7 | Cc1ccccc1CCN1C(=O)c2cc3ccccc3n2CC1(C)C(=O)NCc1ccccc1 (stereo not given) | 2.4 | 0 | 5.43 | 6.34 | 0.085
8 | C[C@H]1[C@@H](OC(=O)CCC(=O)O)O[C@@H]2O[C@@]3(C)CC[C@@H]4[C@H](C)CC[C@@H]1[C@@]24OO3 | 5.74 | 4.72 | 10.3 | -5.51 | 5.05
9 | CC(C)COCC(CN(Cc1ccccc1)c1ccccc1)N1CCCC1 (stereo not given) | -9.31 | 0.412 | -4.86 | -9.55 | -1.21
10 | COc1cc(NC(=O)CCC2CCCN(Cc3nc(C(C)C)cs3)C2)cc(OC)c1 (stereo not given) | -3.7 | -6.93 | -2.37 | -25.6 | -2.2
11 | CC1(C(=O)NC2CCCCCCC2)Cn2c(cc3sccc32)C(=O)N1CCCN1CCOCC1 (stereo not given) | 2.23 | 0.335 | 5 | -9.39 | 2.21
12 | Cc1c(CN2CCN(C(=O)C(C)O)CC2)sc2c(N3CCOCC3)nc(-c3cnc(N)nc3)nc12 (stereo not given) | -47.4 | – | -0.019 | – | –
13 | COc1cccc(S(=O)(=O)N2CCC(n3c(C)cnc3C3CC3)CC2)c1 | -5.79 | 5.33 | -10.6 | -7.83 | -0.207
14 | COc1ccc(-c2nnn3c2nc(NCc2ccc(C)cc2)c2ccccc23)cc1 | -0.841 | 1.24 | -0.059 | 1.1 | -1.26
15 | CCN(Cc1ccccc1)C(=O)Cn1c(=O)n(C)c2cnc(-c3ccccc3)nc21 | -9.6 | 2.24 | 9.75 | -25.5 | 4.65
16 | CC1(C(=O)NCc2ccccc2)Cn2cnc(C(=O)NCCc3ccccc3)c2C(=O)N1C1CC1 (stereo not given) | -3.81 | 0.606 | -4.14 | -1.18 | 0.079
17 | CC1(C(=O)NC2CCCC2)Cn2c(ccc2-c2ccccc2)C(=O)N1CCc1cccs1 (stereo not given) | 0.369 | 0.053 | 2.71 | -1.73 | -1.59
18 | O=C(c1ccc(Nc2nn3c(=O)c4ccccc4nc3s2)cc1)N1CCN(C2CCCCC2)CC1 | -10.2 | 0 | -15.9 | -14.1 | -0.032
19 | CCC1c2ccc(C)n2CCN1C(=O)Nc1cc(C)ccc1OC (stereo not given) | 1.07 | 0 | 2.49 | -0.75 | 1.69
20 | Cc1ccc(-n2nc(C(C)(C)C)cc2NC(=O)Nc2cc(COc3cccnc3)[nH]n2)cc1 | -5.22 | 0.118 | 2.44 | -19.6 | -1.47

Row | Compound | activity change, negative = inhibition [1] [%] | activity change, negative = inhibition [2] [%] | activity change, negative = inhibition [3] [%] | activity change, negative = inhibition [4] [%] | activity change, negative = inhibition [5] [%]
21 | NC(=O)c1ncn([C@@H]2O[C@H](CO)[C@@H](O)[C@H]2O)n1 | 4.39 | 8.24 | 5.88 | -5.63 | -2.95
22 | CC(C)c1ccc(N2C(=O)c3cc(-c4ccco4)nn3CC2(C)C(=O)NC2CCCCCC2)cc1 (stereo not given) | -6.01 | 4.01 | 1.9 | -13.6 | -4.58
23 | CN1CCN([C@H]2CCN(C(=O)COCc3ccccc3)C[C@H]2CCCO)CC1 | 1.65 | 1.28 | 1.21 | -3.07 | -10.5
24 | CC(=O)N1CCN(Cc2ccc([C@H](C)Nc3nccc(N4C(=O)OC[C@@H]4C(C)C)n3)cc2)CC1 | 4.02 | 4.47 | 12.1 | -16.5 | 3.65
25 | CC(C)c1ccc(-n2cc(CN3CCCC(O)(CN(C)C)C3)cn2)cc1 (stereo not given) | -7 | -6.71 | -16.1 | -10.1 | -3.79
26 | Cc1ccc2c(cnn2C(=O)CCC(=O)N2CCN(c3ccccc3)CC2)c1 | -2.29 | 0 | 2.85 | -7.54 | 0.452
27 | Cc1nc(CN2Cc3nc(OCc4ccc(F)cc4)ccc3OCC2=O)cs1 | -13.1 | -3.03 | -4.23 | -9.95 | 0.161
28 | CCN1CCN(c2nc3c(S(=O)(=O)c4ccccc4)nnn3c3ccccc23)CC1 | 6.94 | 3.9 | -9.07 | 7.72 | 2.92
29 | Cc1ccc(Cn2nc3n(Cc4ccc(F)cc4)c(=O)c4ccccc4n3c2=O)cc1 | 4.71 | 0.284 | 2.7 | 4.58 | 3.84
30 | Cc1ccccc1C(=O)N1CCC(C(=O)N2CCC(c3nc4ncccc4[nH]3)CC2)C1 (stereo not given) | -3.95 | -6.31 | -3.45 | -9.57 | -6.94
31 | O=C1CCCC2=C1C(c1ccncc1Br)N=C(Nc1nc3ccccc3o1)N2 (stereo not given) | – | -0.996 | – | -30.1 | -14.4
32 | CN(C)c1ccc2ncc(Nc3cc(F)cc(N4CCOCC4)c3)n2n1 | -10.6 | -8.37 | -13.2 | -18.6 | -8.77
33 | CC1(C(=O)NCc2ccccc2Cl)Cn2cnc(C(=O)NCc3ccc(F)cc3)c2C(=O)N1C1CC1 (stereo not given) | 1.56 | 1.85 | 10.2 | -0.568 | 9.97
34 | Cc1cnc(C2CCOCC2)n1C1CCCN(S(=O)(=O)c2ccccc2)C1 (stereo not given) | -6.23 | 4.54 | 2.94 | -4.44 | 15.4
35 | COc1ccccc1CNC(=O)C1(C)Cn2c(cc3ccccc32)C(=O)N1Cc1cccc(Cl)c1 (stereo not given) | -4.26 | 2.71 | -7.78 | -8.47 | -7.24
36 | CN1C(=O)CC[C@]2(C(=O)N3CCCCC3)CCCC[C@@H]12 | 0.155 | -0.115 | 1.34 | -0.878 | 2.23
37 | CCCn1cc(S(=O)(=O)N[C@H](CC)C2CC(O)C2)cn1 (stereo not given in full) | -2.11 | 0.55 | 0.604 | 5.91 | 0.71
38 | Cc1ccc(Cn2nc3n(CCC(C)C)c(=O)c4ccc(C(=O)NC5CCCC5)cc4n3c2=O)cc1 | 3.04 | 0 | 5.56 | 5.45 | 3.54
39 | CCc1nc(C)sc1C(=O)N1C[C@@H](C(=O)O)[C@H](c2cccc(OC)c2)C1 | -1.99 | -1.21 | 0.586 | -3.53 | -5.41
